Measurements from the supplement of paper PMC3334620.
Whole data set: some 33,000 sequences, median “E-score (-0.5 to 0.5)” near -0.013, cut for the highest 2% near 0.3. Some of the results follow.

Target: T1, Msn1 (UniProt P22148)
T1 sequence: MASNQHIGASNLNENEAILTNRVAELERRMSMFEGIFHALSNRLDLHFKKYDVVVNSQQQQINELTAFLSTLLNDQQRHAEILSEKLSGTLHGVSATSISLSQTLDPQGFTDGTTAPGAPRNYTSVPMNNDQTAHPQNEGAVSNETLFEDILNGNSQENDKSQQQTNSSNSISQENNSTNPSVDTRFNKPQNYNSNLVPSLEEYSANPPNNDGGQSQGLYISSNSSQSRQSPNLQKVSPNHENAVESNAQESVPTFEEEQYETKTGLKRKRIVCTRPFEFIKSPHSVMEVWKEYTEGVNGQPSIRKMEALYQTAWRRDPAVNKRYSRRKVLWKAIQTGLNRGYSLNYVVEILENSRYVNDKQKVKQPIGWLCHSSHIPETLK
Experiment: PBM E-score (8-mer binding enrichment) (E-score (-0.5 to 0.5)); higher = stronger / more preferred TF binding; most listed sequences are background and not binding sites
Conditions: protein concentration: 200 nM; construct: GST-full length
Procedure, shortened: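 Each ungapped eight-base word and its reverse complement, pooled, received an E-score from the Universal PBM Analysis Suite. Underlying scans, normalised with masliner, recorded fluorescent anti-GST bound to GST-tagged yeast transcription factors. These were applied at about 100-200 nM to universal all-10-mer Agilent arrays double-stranded by primer extension.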

Sequence	PBM E-score
AACATGCG	0.0442
CCTAACGA	-0.0165
AAAAAGAT	0.0547
AGGAAGTA	-0.0694
CTCCCCGC	-0.0568
AGGATGCG	-0.124
GTTCCGTA	0.101
ACTAGAAG	-0.106
CGGCTAAA	0.169
GACGCGTC	0.0432
GGGGGTCA	-0.36
TGTTTGAA	0.138
AGAATTCG	-0.035
ACGTGGTG	-0.0637
ATGGCACC	-0.104
AGTTTTAC	0.0868
CGCGTTGC	0.161
CTTGACCA	0.00926
CGGGTGCC	-0.181
ACTGTAAC	-0.113
CAGTTGAA	0.114
ACGCATCA	0.133
AAGTAGCG	-0.176
CGGTCAAG	0.0408
GAACCAGA	-0.179

Sequence	PBM E-score
GGCCCCGA	-0.107
CAAGTTCC	0.00914
AGATAGAG	0.00936
CACCCAGG	-0.205
TCCAAGAA	-0.0356
AAGCTAAG	-0.177
CCACGGAG	0.0292
TTCTCAAA	0.168
CCAGTTTC	-0.128
AAGCTTAA	5e-05
GCTCTGCA	-0.327
CACCACGG	-0.138
AACTACCA	-0.0694
GGTCGTCA	-0.0599
CTAAACCC	0.00369
CAAACTTA	0.193
ATTTTGGG	0.188
CACATACA	0.0971
CCTAAACC	-0.0782
CTAGATCC	-0.119
ACGGTGAA	0.0567
GTCGTCAC	0.00131
GCCTGTGA	-0.242
GGTCTCAA	0.0652
ATTATTAG	0.175

Sequence	PBM E-score
CCCAACAA	-0.0384
AGCATGCT	-0.0522
CGACACAG	0.154
GAATTAAA	0.0652
ACCGCCGG	-0.184
GTTGTTCA	-0.0397
TAGTACTA	0.135
CTACGTTA	0.0203
AGCACTTA	-0.039
ATTAGGTC	0.223
AAGCTACA	-0.0106
ATGCTTAA	-0.0652
CATCACGC	0.0179
CATTCCTC	-0.164
GACCCTTA	-0.246
AAGATTAA	0.151
GAAACCTA	-0.0672
TCATGTAA	0.119
AGCGGCCC	-0.244
AAATGCGT	0.033
ATTTGTAC	0.46
CATAGACA	0.35
GAGTCTGA	-0.147
GCGTTCAC	-0.00361
ATGTTGCC	-0.104

Sequence	PBM E-score
CAAGCCTG	-0.0301
ACTACAGT	-0.105
ACTTCTCC	-0.267
ATAGAGGG	-0.14
ATACCTAT	-0.0115
CAATCCGC	0.0784
CGAGAGAC	-0.116
CGTCTCAC	-0.0978
AATGCAAG	-0.0588
CGTAGGTC	-0.171
AACATCAA	0.0716
GCGAGTGA	-0.0159
ACTAAGAT	0.176
TGGTAAAA	0.172
CTATTTAC	0.105
ATTGGGCG	-0.116
AATCACGC	0.00204
GAGCTGAA	-0.0201
ATATATTG	-0.172
CTGGTATA	-0.044
TATTGCGA	0.107
ACCGAGTA	-0.0136
GGCTTATA	-0.23
TCCCGCCA	-0.217
ACCATAAA	0.173

Sequence	PBM E-score
CCCAATAC	-0.057
GGAGTGTA	-0.268
ATTTACCC	0.164
TAGACGAA	0.0138
AGAGTGCA	-0.218
GAGTGTCA	0.108
AAGAACCC	-0.134
AGGAACGG	-0.124
CTTAAAGA	0.0952
CATAACAG	0.0538
GCCCACCA	-0.303
AACTTGTA	0.107
CCCAAGCG	-0.0934
CTTTGGTA	-0.1
ATTAACAC	0.0955
GAGATCTA	-0.183
CATATGAA	0.141
GTACTCGA	-0.113
TGTTACAA	0.22
AGCTAATC	0.0178
TAGCCAGA	-0.108
GTCCACGA	0.249
AGAGTCTG	-0.128
ACGCTCGC	0.0326
GGAGCTAC	-0.137

Sequence	PBM E-score
AATTGTAA	-0.0934
ACAGGGAA	0.0107
AGCCCAGC	-0.24
CTGTGTTC	0.11
AACGCATA	0.0763
TCCGAAGA	0.131
CAATACCC	0.0522
ACCGACGG	-0.0248
CGATGGCA	-0.164
CGCAATAG	-0.0645
GTACAGTA	0.0995
AACAGTGA	0.0353
CAGAAAGG	-0.0618
TTACGCAA	0.0247
AGTCACAG	0.13
CCCCCGCA	-0.337
GCGTCCAA	0.067
GTGATAAA	-0.0414
CTTCAATA	0.202
TGGCGAAA	-0.095
TAGCACAA	-0.0496
CGGAGAAC	0.0215
CAGGGAAG	-0.169
TACGCTCA	0.0632
GAATTTGA	0.1

Sequence	PBM E-score
TAAGACTA	0.177
GAGAATCC	-0.0107
AAAGATCG	0.0122
CGTCTCAG	0.0225
ACCTCTCC	-0.216
CTTAATAC	-0.0761
GAAGGGAA	-0.174
AACTCGAG	0.0829
CATAGCTC	-0.112
CGAGCGTA	0.0434
ACAGTGGA	0.0618
CAGGGTCC	-0.201
CAGATTAC	0.116
ACGATGTA	0.00548
CGATGATA	-0.039
AGGCAGGC	-0.145
AGGGTATG	0.0049
ATGGACAA	0.485
AACTGTGG	0.139
CGGAAAAA	0.249
ATTATCGC	0.251
CCAATTCC	0.0443
